In the supplement of paper PMC5919970 one finds fractional viability data, which are given here for 36 compounds.

Structures can show the parent of a compound that is named as a salt. In all, about 2,000 compounds were measured (“fractional viability relative to vehicle”: median about 0.91, lowest 2% from about 0.045 on). Some of the results follow.

The experiment relates to TYKNU. Briefly: fractional viability relative to vehicle; TYKNU is a high-grade serous ovarian cancer line; higher = less growth inhibition. The conditions noted are these: 72 h. Summed up: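 TYKNU control cells or lentiCRISPRv2 knockout derivatives were plated at 500 cells per well in duplicate into drug-stamped 384-well plates holding a ~2100-compound library at 2 or 10 μM. Culture was in RPMI 1640 with 10% FBS at 37 °C in 5% CO2, with 72 h of drug treatment. Viability was measured by Cell Titer Glo luminescence, and the averaged duplicate treatment wells were normalised to duplicate control wells at the same plate position.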

[1] abbreviates: 2uM, genotype: DNM1L knockout (sgDNM1L #1).
Where [2] appears, read: 2uM, genotype: sgCTRLA1 (non-targeting control).
[3] abbreviates: 10uM, genotype: DNM1L knockout (sgDNM1L #1).
[4] abbreviates: 10uM, genotype: sgCTRLA1 (non-targeting control).

`O=C(Nc1ccccc1)Nc1ccc(-c2ccc(C(=O)[C@@H]3CCC[C@H]3C(=O)O)cc2)cc1`: the fractional viability reads like this: under setting [1], 1.15; under setting [2], 1.01; under setting [3], 0.991; under setting [4], 1.12.
On to `CN(C)C/C=C/C(=O)Nc1cc2c(Nc3ccc(F)c(Cl)c3)ncnc2cc1O[C@H]1CCOC1` [Afatinib (BIBW2992)], for which the fractional viability reads like this: under setting [1], 0.578; under setting [2], 0.809; under setting [3], 0.0953; under setting [4], 0.0868.
With `CN(C)C/C=C/C(=O)Nc1cc2c(Nc3ccc(F)c(Cl)c3)ncnc2cc1O[C@H]1CCOC1` [Afatinib (BIBW2992) Dimaleate], the fractional viability is, setting by setting: under setting [1], 0.77; under setting [2], 0.984; under setting [3], 0.77; under setting [4], 0.767.
With `O=C1NC(=O)C(c2ccccc2)(c2ccccc2)N1` [Phenytoin], the fractional viability runs as follows: under setting [1], 0.907; under setting [2], 1.05; under setting [3], 0.825; under setting [4], 1.13.
For `CC(C)(O)c1ccccc1CC[C@@H](SCC1(CC(=O)O)CC1)c1cccc(/C=C/c2ccc3ccc(Cl)cc3n2)c1` [Montelukast Sodium], in that order: 0.809, 1.13, 0.762 and 1.05.
For the compound `O=C(Nc1ccccc1Br)N[C@@H]1CCN(c2ccc(C(F)(F)F)cn2)C1`, the fractional viability is 0.967 under setting [1], 1.15 under setting [2], 0.64 under setting [3] and 0.746 under setting [4].
As for `COc1ccc(S(=O)(=O)N(CCO)c2ccccc2CN(C)C/C=C/c2ccc(Cl)cc2)cc1` [KN-93 Phosphate], the fractional viability under setting [1] came to 0.727, the fractional viability under setting [2] was found to be 0.888, the fractional viability under setting [3] was 0.332 and the fractional viability under setting [4] was 0.333.
In the same order, the values of `CN(C)CC(c1ccc(O)cc1)C1(O)CCCCC1` (centres undefined) [Desvenlafaxine Succinate] are 1.01, 1.06, 0.834 and 1.07.
In the same order, the values of `CN(C)CC(c1ccc(O)cc1)C1(O)CCCCC1` (centres undefined) [Desvenlafaxine] are 1.02, 1.2, 0.867 and 1.12.
Turning to `O=C(NOCC(O)CO)c1cc(Br)c(F)c(F)c1Nc1ccc(I)cc1F` (centres undefined), the fractional viability runs as follows: under setting [1], 0.463; under setting [2], 0.563; under setting [3], 0.243; under setting [4], 0.299.
For `C#CCC(Cc1cnc2nc(N)nc(N)c2n1)c1ccc(C(=O)N[C@@H](CCC(=O)O)C(=O)O)cc1` (some centres undefined) [Pralatrexate], in that order: 0.325, 0.314, 0.19 and 0.307.
`O=C(C[S+]([O-])Cc1ccco1)NC/C=C\COc1cc(CN2CCCCC2)ccn1` (centres undefined) [Lafutidine]: the fractional viability under setting [1] was determined as 1, the fractional viability under setting [2] was 1.2, the fractional viability under setting [3] is 0.826 and the fractional viability under setting [4] was 1.06.
In the same order, the values of `CCN(CC)CCCC(C)Nc1nc(C)cc(Nc2ccc3nc(C)cc(N)c3c2)n1` (centres undefined) are 0.927, 0.862, 0.802 and 0.667.
As to `COc1c(N2CCNC(C)C2)c(F)cc2c(=O)c(C(=O)O)cn(C3CC3)c12` (centres undefined) [Gatifloxacin], the fractional viability by setting is: under setting [1], 1.02; under setting [2], 1.24; under setting [3], 1.21; under setting [4], 1.09.
In the same order, the values of `O=C(c1ccccc1)c1ccc2n1CCC2C(=O)O` (centres undefined) [Ketorolac] are 0.998, 1.08, 0.879 and 0.997.
`Nc1ncnc2n[nH]c(Nc3ccc(F)cc3)c12`: the fractional viability is, setting by setting: under setting [1], 1.14; under setting [2], 1.07; under setting [3], 0.592; under setting [4], 0.453.
For `CCn1cc(NC(=S)Nc2cc(Cl)ccc2OC)c(C(N)=O)n1`, in that order: 0.866, 0.968, 0.864 and 0.829.
`CC[C@H](C)C[C@H](C)CCCCCCCCC(=O)N[C@H]1C[C@@H](O)[C@@H](NCCN)NC(=O)[C@@H]2[C@@H](O)CCN2C(=O)[C@H]([C@H](O)CCN)NC(=O)[C@H]([C@H](O)[C@@H](O)c2ccc(O)cc2)NC(=O)[C@@H]2C[C@@H](O)CN2C(=O)[C@H]([C@@H](C)O)NC1=O` [Caspofungin Acetate] showed a fractional viability under setting [1] of 0.98, a fractional viability under setting [2] of 1.17, a fractional viability under setting [3] of 0.637 and a fractional viability under setting [4] of 1.01.
Regarding `CN(C)Cc1ccc(S(=O)(=O)n2ccc(/C=C/C(=O)NO)c2)cc1` [Resminostat], the fractional viability is, setting by setting: under setting [1], 0.674; under setting [2], 0.662; under setting [3], 0.0944; under setting [4], 0.23.
`c1ccc(CN(CC2=NCCN2)c2ccccc2)cc1` [Antazoline HCl]: the fractional viability is 0.795 under setting [1], 1.07 under setting [2], 0.744 under setting [3] and 1.04 under setting [4].
In the same order, the values of `CN(C)CC/C=C1/c2ccccc2COc2ccc(CC(=O)O)cc21` [Olopatadine HCl] are 0.937, 1.02, 0.844 and 1.03.
For the compound `CCCCCCCCCCCC[N+](C)(C)CCOc1ccccc1` [Domiphen Bromide], the fractional viability turned out to be 0.558 under setting [1], 0.882 under setting [2], 0.0673 under setting [3] and 0.0826 under setting [4].
On to `Cc1ccc(-n2nc(C(C)(C)C)cc2NC(=O)Nc2ccc(OCCN3CCOCC3)c3ccccc23)cc1` [BIRB 796 (Doramapimod)], for which the fractional viability came to 0.868 under setting [1], 1.12 under setting [2], 0.869 under setting [3] and 0.992 under setting [4].
For `Cc1cc(OCc2nnc(SC3CCCC3)n2-c2cccnc2)ccc1-c1ccc(S(C)(=O)=O)cc1`, in that order: 0.545, 0.46, 0.0437 and 0.0922.
In the same order, the values of `CNC(=O)c1ccc(C)c(-n2c(C)cc(OCc3ccc(F)cc3F)c(Br)c2=O)c1` are 0.969, 0.826, 0.759 and 0.872.
For `CC(C)C[C@H](NC(=O)CNC(=O)c1cc(Cl)ccc1Cl)B1OC(=O)C(CC(=O)O)(CC(=O)O)O1`, in that order: 0.13, 0.0935, 0.0814 and 0.0756.
In the case of `CC[C@@H](CO)NCCN[C@@H](CC)CO` [Ethambutol HCl], the fractional viability under setting [1] was found to be 1.11, the fractional viability under setting [2] was determined as 1.1, the fractional viability under setting [3] turned out to be 0.838 and the fractional viability under setting [4] was determined as 1.1.
As for `CCN(CC)CCCCNc1ncc2cc(-c3cc(OC)cc(OC)c3)c(NC(=O)NC(C)(C)C)nc2n1`, the fractional viability under setting [1] is 1.08, the fractional viability under setting [2] is 0.934, the fractional viability under setting [3] was found to be 0.347 and the fractional viability under setting [4] was 0.357.
`CCCOc1ccc(C(=O)OCCN(CC)CC)cc1N` [Proparacaine HCl] displayed a fractional viability under setting [1] of 1.04, a fractional viability under setting [2] of 0.953, a fractional viability under setting [3] of 0.991 and a fractional viability under setting [4] of 0.996.
For `CC(=O)OCC(=O)[C@H]1CC[C@H]2[C@@H]3CCC4=CC(=O)CC[C@]4(C)[C@H]3CC[C@]12C` [Deoxycorticosterone acetate], in that order: 0.872, 1.13, 0.785 and 1.06.
For `Cn1cc(-c2ccc3c(c2)CCN3C(=O)Cc2cccc(C(F)(F)F)c2)c2c(N)ncnc21`, in that order: 0.883, 1.04, 0.492 and 0.477.
On to `Oc1cccc(-c2nc(N3CCOCC3)c3oc4ncccc4c3n2)c1`, for which the fractional viability was 0.305 under setting [1], 0.288 under setting [2], 0.213 under setting [3] and 0.223 under setting [4].
In the same order, the values of `N#C/C(=C\c1ccc(O)c(O)c1)C(=O)NCc1ccccc1` [AG-490 (Tyrphostin B42)] are 0.921, 1.01, 0.84 and 0.99.
For the compound `C#C[C@]1(O)CC[C@H]2[C@@H]3CCC4=CC(=O)CC[C@@H]4[C@H]3CC[C@@]21CC` [Levonorgestrel], the fractional viability reads like this: under setting [1], 0.936; under setting [2], 1.15; under setting [3], 0.851; under setting [4], 1.08.
Consider `O=C(/C=C/c1ccc(O)c(O)c1)O[C@@H]1C[C@](O)(C(=O)O)C[C@@H](O)[C@H]1O` [Chlorogenic Acid], for which the fractional viability runs as follows: under setting [1], 0.91; under setting [2], 0.956; under setting [3], 0.88; under setting [4], 1.09.
In the same order, the values of `C[C@@H]1COC(Nc2ccc3ncnc(Nc4ccc(OCc5nccs5)c(Cl)c4)c3c2)=N1` [Varlitinib] are 1.34, 1.16, 0.358 and 0.345.
